Measured values: PMC4336329 (PLoS ONE, 2015)
About 14,000 (4.5%) of roughly 310,000 compounds showed an effect of 50% or more. The effect is printed as a negative number. Some of the results follow.

Target: human ether-à-go-go-related gene (hERG) potassium channel (human, UniProt Q12809)
Test: primary screen, population patch clamp on CHO cells stably expressing hERG
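Further: peak tail current of the secondary pulse compared with the same well before compound.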

human ether-à-go-go-related gene (hERG) potassium channel, sequence (Q12809 whole entry, looked up): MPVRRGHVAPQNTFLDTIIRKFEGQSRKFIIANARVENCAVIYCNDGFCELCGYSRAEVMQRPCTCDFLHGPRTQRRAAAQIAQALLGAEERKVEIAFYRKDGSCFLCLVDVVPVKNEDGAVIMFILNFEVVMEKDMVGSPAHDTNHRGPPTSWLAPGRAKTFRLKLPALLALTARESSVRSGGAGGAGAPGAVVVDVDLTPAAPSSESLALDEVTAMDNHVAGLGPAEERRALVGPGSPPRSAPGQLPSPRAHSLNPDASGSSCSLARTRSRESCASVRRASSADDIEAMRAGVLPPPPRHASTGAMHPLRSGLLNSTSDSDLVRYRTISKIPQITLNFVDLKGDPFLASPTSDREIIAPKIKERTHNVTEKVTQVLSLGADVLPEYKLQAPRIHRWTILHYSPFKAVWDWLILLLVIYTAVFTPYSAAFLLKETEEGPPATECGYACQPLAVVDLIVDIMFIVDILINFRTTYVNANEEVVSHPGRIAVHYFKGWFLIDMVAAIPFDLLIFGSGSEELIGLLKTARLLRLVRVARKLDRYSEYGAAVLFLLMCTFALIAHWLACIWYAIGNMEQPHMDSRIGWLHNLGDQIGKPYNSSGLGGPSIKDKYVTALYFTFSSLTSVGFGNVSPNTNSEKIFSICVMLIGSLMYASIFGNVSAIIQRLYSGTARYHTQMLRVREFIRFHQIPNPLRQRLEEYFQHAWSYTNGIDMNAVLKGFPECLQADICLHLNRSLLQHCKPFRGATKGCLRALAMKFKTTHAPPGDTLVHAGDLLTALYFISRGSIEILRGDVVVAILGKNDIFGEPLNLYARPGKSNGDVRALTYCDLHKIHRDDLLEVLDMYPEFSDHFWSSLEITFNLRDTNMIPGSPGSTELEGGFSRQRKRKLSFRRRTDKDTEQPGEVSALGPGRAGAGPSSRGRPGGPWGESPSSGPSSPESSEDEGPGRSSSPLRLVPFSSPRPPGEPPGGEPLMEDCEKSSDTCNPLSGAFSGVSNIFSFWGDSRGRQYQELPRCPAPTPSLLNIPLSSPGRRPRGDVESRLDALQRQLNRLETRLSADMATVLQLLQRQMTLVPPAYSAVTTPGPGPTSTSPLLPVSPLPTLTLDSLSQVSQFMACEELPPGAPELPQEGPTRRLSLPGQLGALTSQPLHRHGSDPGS

Row | Structure (SMILES) | hERG current change (%, negative = inhibition) at 10uM [%]
1 | CCc1ccccc1NC(=O)Cn1nc(C)n2cccc2c1=O | 1.74
2 | COC(=O)c1c(C)[nH]c(C(=O)COC(=O)Cc2ccc3c(c2)OCCO3)c1C | -24.3
3 | CN(C(=O)CSc1nnc(-c2cccs2)o1)C1CCS(=O)(=O)C1 (stereo not drawn) | 4.67
4 | O=C(NCCCC1CCCC1)C1CCC(=O)N(Cc2ccc(Cl)cc2)C1 (stereo not drawn) | -61.4
5 | COc1ccc(CCNc2nc(-c3ccc(NC(C)=O)cc3)cs2)cc1OC | 5.69
6 | CC(Nc1nc(-c2ccccc2)nc2ccccc12)c1ccccc1 (stereo not drawn) | 3.47
7 | c1ccc(-c2nnc(SCCC3OCCCO3)o2)cc1 | 10.7
8 | COc1cccc(NC(=O)CN2C(=O)C3(OCCCO3)c3ccccc32)c1 | 0.626
9 | Cc1ccc(NC(=O)C2CCCN(S(=O)(=O)c3cnc[nH]3)C2)cc1C (stereo not drawn) | -4.88
10 | Clc1ccc(OCc2nc3ccccc3[nH]2)cc1 | 20.1
11 | CC(C)(C)C1CCC(OC(=O)c2ccncc2)CC1 (stereo not drawn) | -6.89
12 | Fc1ccccc1CN1CCN(c2ccc(Cl)cc2)CC1 | 1.71
13 | COc1ccc(COC(=O)c2nc3nc(C)cc(C)n3n2)cc1F | -3.65
14 | O=C(N/N=C/c1ccc(-c2cccc([N+](=O)[O-])c2)o1)c1cccs1 | 35.9
15 | CC(=O)c1c(O)cc(C)n(-c2ccc(F)cc2)c1=O | 6.67
16 | COCCNC(=O)CSc1ccc(C)cc1 | 3.31
17 | CCn1c(O)c(N=NC(=O)CNC(=O)Cc2ccccc2)c2ccccc21 | -12.4
18 | CC(C)(C)C(=O)NCCc1nc2ccccc2n1CC(=O)c1ccccc1 | -2.84
19 | Cc1nn(Cc2ccccc2)c(C)c1C(=O)NCCCN1CCCC1=O | -6.35

Row | Structure (SMILES) | hERG current change (%, negative = inhibition) at 10uM [%]
20 | O=C(CNC(=O)c1ccc2c(c1)OCCO2)N/N=C/c1ccc(Cl)cc1 | 14.1
21 | CCOc1cc(Br)cc(/C=C2\SC(=Nc3ccccc3)NC2=O)c1O | 25.8
22 | COc1ccc(CNC(C)C2COc3ccccc3O2)c(OC)c1.O=C(O)C(=O)O (stereo not drawn) | -63.2
23 | O=C(/C=C/c1ccc(F)cc1)NC(=S)NNC(=O)[C@H]1C[C@@H]1c1ccccc1 | 4.72
24 | COc1ccc(N2C(=O)CC(N3CCC(C(N)=O)CC3)C2=O)cc1 (stereo not drawn) | 10.1
25 | CCOc1ccc(NC(=O)CSc2nc3c(c(=O)n2C)SC(C)C3)cc1 (stereo not drawn) | 1.95
26 | CCN1CCN(c2oc(COc3ccc(-c4ccccc4)cc3)nc2C#N)CC1 | -55.8
27 | O=C(COc1ccc(Cl)cc1)NNC(=O)C(=O)N1CCCCC1 | -11.6
28 | O=C(CCn1c(=O)c2cccn2c2ccc(F)cc21)NCc1cccc(F)c1 | 23.4
29 | COc1cc(NC(=O)c2ccccc2)c(OC)cc1NC(=O)CN1C(=O)NC2(CCCCC2C)C1=O (stereo not drawn) | -49.8
30 | Cc1ccc(CSCc2ccc(C(=O)NC3CCCC3)o2)cc1 | -18.2
31 | CCC(=NCCc1ccccc1)c1c(O)n(C2CCCCC2)c(=O)[nH]c1=O | -5.35
32 | CC(=O)NC(C)C12CC3CC(CC(C(=O)O)(C3)C1)C2 (stereo not drawn) | 16.3
33 | CCOC(=O)N1CCN(C(=O)c2ccc(CNS(=O)(=O)c3ccc(C)cc3)cc2)CC1 | -22.8
34 | NC(=O)c1ccccc1[N+](=O)[O-] | 12.9
35 | COc1ccc(Nc2cc(C(=O)NCc3ccccn3)c3ccccc3n2)c(OC)c1 | 8.79
36 | O=C(Cc1ccc(F)cc1)Nc1ccc(S(=O)(=O)N2CCCCC2)cc1 | -4.48
37 | CCC(CC)C(=O)Nc1cccc(C(=O)NC(C)(C)C)c1 | 19.2
38 | O=C(COC(=O)c1cc(S(=O)(=O)N2CCCCC2)ccc1N1CCOCC1)NCCc1ccc(F)cc1 | -25.5

Row | Structure (SMILES) | hERG current change (%, negative = inhibition) at 10uM [%]
39 | Cn1ncc(Br)c1NC(=O)c1cc(Cl)cc(Cl)c1 | -11.4
40 | O=C(NCCC1=CCCCC1)c1ccc2c(=O)n3c(nc2c1)CCCCC3 | -42.1
41 | CCOC(=O)c1cc2n(c1N)-c1ccccc1C2=O | -8.4
42 | O=C(NC(=S)Nc1ccccc1N1CCCC1)c1ccccc1Br | 11.6
43 | O=[N+]([O-])c1cc(-c2ccc(/C=N\n3cnnc3)o2)cc([N+](=O)[O-])c1 | -21.5
44 | C/C=C/C(=O)Nc1nnc(-c2ccccc2C)s1 | -2.39
45 | CS(=O)(=O)N1CCC(Oc2cccc(C(=O)NCCCOc3cccnc3)c2)CC1 | 13.2
46 | O=C(COC(=O)/C(=C/c1cccs1)c1cccs1)NCc1ccccc1Cl | 2.4
47 | CCOc1ccc(NC(=O)CSc2nnc(-c3ccncc3)n2CC2CCCO2)cc1 (stereo not drawn) | -10.6
48 | COc1cccc(NC(=O)Cc2cn(C)c3ccccc23)c1 | -6.13
49 | Cc1c(C)c2ccc(OCC(=O)N[C@@H](Cc3ccccc3)C(=O)O)cc2oc1=O | 18.3
50 | CCCc1ccc(-c2c(C)sc(NC(=O)c3ccnn3C)c2C#N)cc1 | 11.5
51 | Cc1cc(Oc2ccc(=O)n(C)n2)nc(=S)[nH]1 | 17.4
52 | CCCn1cc(SCC(=O)NC2CCCC2)c2ccccc21 | -6.96
53 | Cl.O=C(CSC1=NCCN1)Nc1cccc(C(F)(F)F)c1 | -28.5
54 | O=C(Cn1cnc2ccccc21)Nc1cccc([N+](=O)[O-])c1 | 12.5
55 | O=c1[nH]c(-c2ccccc2)c(-c2ccccc2)nc1[N+](=O)[O-] | 13.4
56 | NC(=O)Cc1cn(-c2ncc(C(F)(F)F)cc2Cl)c2ccccc12 | -24.7
57 | COC(=O)c1cc(NC(=S)Nc2cc(Cl)cc(Cl)c2)cc(C(=O)OC)c1 | -0.0139
